According to PubChem BioAssay AID2060350 (Molecular Pharmacology Branch, DTP, NCI, 2025):
Not every entry of the source has a single result; some have several. The list is limited to them. There may be further records. Results that share an entry repeat one measurement (runs, samples, wells, individuals or studies). A date in brackets names the month of the test.

Tested on: PDC 521955-158-R6-J3 spheroids, viability
Assay: Anticancer human tumor 521955-158-R6-J3-PDC patient-derived pancreatic carcinoma cell line growth inhibition [TAK]
Details: stronger effect = lower value, spheroids with HUVEC and MSC
Description: Combinatorial screen of targeted agents with TAK-243 and ipatasertib in multi-cell type tumor spheroids
A high-throughput screen of multi-cell type tumor spheroids was designed to identify active combinations of targeted small molecules and TAK-243 or ipatasertib. Complex spheroids include a stromal component modeled by human endothelial cells (HUVEC) and fibroblasts modeled by human mesenchymal stem cells (MSCs). The concentration ranges selected for each drug and investigational agent were based upon clinically achievable concentrations if the clinical Cmax of the agent was known.
Compounds. The drugs and investigational agents: TAK-243 (785004), ipatasertib (767898), everolimus (733504), selumetinib (741078), bortezomib (756655), trametinib (758246), ixazomib (758254), vemurafenib (761431), dabrafenib (764134), sapanisertib (764658), alpelisib (765974), and copanlisib (816437), were obtained from the National Cancer Institute (NCI) Developmental Therapeutics Program Chemical Repository. The FDA-approved anticancer drug set is available from the NCI Developmental Therapeutics Program. […] The stock solutions were prepared in dimethyl sulfoxide (DMSO, Sigma-Aldrich, St. Louis, MO, cat. D2650) at 800-fold the tested concentration and stored at -70 degrees C prior to their use. All drugs and investigational agents were tested over a range starting from a high concentration at or near the clinical Cmax and decreasing in half-log increments. If the clinical Cmax for an agent had not been determined, the highest concentration tested was 10 microM.
NCI60 Cell Culture. NCI60 cell lines were obtained from the NCI Developmental Therapeutics Program Tumor Repository. For each lot of cells, the Repository performed Applied Biosystems AmpFLSTR Identifiler testing with PCR amplification to confirm consistency with the published Identifier STR profile for each cell line. Cells were kept in continuous culture for no more than 20 passages. The optimal seeding densities for each of the cell lines at each time point assessed were determined prior to performing the concentration response studies. Briefly, the NCI60 human tumor lines were grown as monolayers in RPMI 1640 medium supplemented with 10% FBS and 2 mmol/L L-glutamine.
An additional 2 lines were from the NCI60 cell line panel including melanomas, MALME-3M and SK-MEL-2. Pooled donor human umbilical vein endothelial cells (HUVEC, Lonza, cat. CC-2519) and human mesenchymal stem cells (hMSC, Lonza, cat. PT-2501) were purchased from Lonza (Walkersville, MD). […]
For the pre-screen, cell seeding densities were determined from a titration spanning the range from 5,000 to 313 cells per well. […]
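Also: spheroids exposed to drugs for 7 days before readout; 100% = DMSO vehicle control viability.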

CC(C)NCC(C(=O)N1CCN(c2ncnc3c2C(C)CC3O)CC1)c1ccc(Cl)cc1 (centres undefined)
viability, T/C (compound alone 0.949 µM): 87.7% [2020-02] and 104, 105, 99.2, 91, 98.1, 76.3, 74.8, 72.9, 73.1% [2020-03] | viability, T/C (compound alone 3 µM): 89.5% [2020-02] and 102, 98.5, 92.6, 87, 89.4, 79, 76.4, 67.3, 67.4% [2020-03] | viability, T/C (compound alone 9.49 µM): 88.9% [2020-02] and 102, 101, 96.1, 98.2, 96.5, 82.2, 72.6, 73.2, 72.7% [2020-03] | viability, T/C (compound alone 30 µM): 100% [2020-02] and 107, 93.5, 98.8, 87, 91.7, 78.6, 70.5, 67.1, 68.4% [2020-03]
